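96-well plates; 48 h exposure; 5 concentrations. Endpoints by linear interpolation between flanking doses. Not reached: highest tested concentration assigned. The concentration for 50% growth inhibition is given as GI50.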 Certain results were filed several times, with different values. This is not the full list of results. An entry can have further records. The tests behind the records often covered other concentration ranges, not given here; some values may only mark the edge of a range.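 TGI marks complete inhibition of growth.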
Columns and labels:
Assay in all cases: NCI-60 cell line screen, 48 h
[1] = test system: HL-60(TB) leukemia
[2] = test system: NCI-H460 lung
[3] = test system: SK-MEL-2 melanoma
[4] = test system: NCI-H522 lung
[5] = test system: SF-268 CNS
[6] = test system: DU-145 prostate
[7] = test system: UO-31 renal
[8] = test system: BT-549 breast
[9] = test system: SK-OV-3 ovarian
[10] = test system: SR leukemia
[11] = test system: 786-0 renal
[12] = test system: IGROV1 ovarian
[13] = test system: HOP-62 NSCLC
[14] = test system: EKVX NSCLC
[15] = test system: U251 CNS
[16] = test system: MOLT-4 leukemia
[17] = test system: K-562 leukemia

SMILES	TGI [1]	GI50 [2]	GI50 [3]	TGI [4]	GI50 [5]	GI50 [6]	GI50 [7]	GI50 [8]	GI50 [9]	GI50 [10]	GI50 [11]	GI50 [12]	GI50 [13]	GI50 [14]	GI50 [15]	GI50 [16]	GI50 [17]
CC(C)C1OC(=O)/C=C/C=C/C=C/C=C/C=C/CC(O)C(C)C(O)CC(O)CC(O)CC(O)CC(O)CC(O)CC(O)/C=C/C1C (configuration not stated)	> 100 µM and 4.36 µM																
Cc1cc(C)cc(Nc2ccc([N+](=O)[O-])c(NCCN3CCOCC3)n2)c1		1.66 nM and 17.5 nM	1.39 nM and 34.3 nM	0.855 nM and 151 nM	7.32 nM and 133 nM	2.84 nM and 41.7 nM	76 nM and 1.38 µM	5.56 nM and 58.7 nM	4.46 nM and 59 nM	0.962 nM and 17.4 nM	3.53 nM and 52.4 nM	3.53 nM and 48.9 nM	1.79 nM and 30.4 nM	4.04 nM and 44.8 nM	2.67 nM and 31.1 nM	5.18 nM and 55.7 nM	0.995 nM and 11.5 nM

Reference: PubChem BioAssay (NCI)
